According to patent publication US9982037B2 (priority 2012, dated 2018):

Columns and labels:
H1N1 PR8 virus [1] = tested on: H1N1 PR8 virus; set-up: species or system BALB/c mice; details: mouse, in vivo
H1N1 PR8 virus [2] = tested on: H1N1 PR8 virus; set-up: species or system BALB/c mice; details: mouse, in vivo; remark: listed apart in the source
[3] = Pharmacokinetic evaluation in mice, serum antibody by ELISA; assay type: in vivo, BALB/c mice; details: single bolus injection of 5 mg/ml of antibody, FIG. 9
[4] = tested on: HA polypeptides from different Influenza subtypes; experiment: ELISA fractional saturation, equilibrium dissociation constant (KD); assay type: binding, influenza virus; details: FIG. 2
PR8 Virus (H1N1) = assay type: cell-based, influenza virus

B1: exemplary antibody: Anti-HA monoclonal antibody with VH chain SEQ ID NO: 1 and VL chain SEQ ID NO: 33 (Table 4) (antibody, V domains shown)
VH: EVQLLESGGGLVKPGQSLKLSCAASGFTFTSYGMHWVRQPPGKGLEWVAVISYDGSYKYYADSVQGRFTISRDNSKNTLYLQMNSLRAEDTAVYYCAKDSELRSLLYFEWLSQGYFNPWGAGTTLTVSSASTK
VL: EIVMTQSPDSLAVSLGERATINCKSSQSVTYNYKNYLAWYQQKPGQPPKLLIYWASTRESGVPDRFSGSGSGTDFTLTISSLQAEDVAVYYCQQYYRTPPTFGGGTKLDIKGS
modifications: Exemplary VH Chain; Exemplary VL Chain
level of infection (viral load, bronchio-aveolar lavage, qPCR) (H1N1 PR8 virus [1]): reduced level of infection
onset / development of H1N1 infection (H1N1 PR8 virus [1]): delays the development of H1N1 infection
weight loss post infection (H1N1 PR8 virus [1]): little to no weight loss
survival rate (H1N1 PR8 virus [2]): increased survival rate
viral associated weight loss (H1N1 PR8 virus [2]): reversal in viral associated weight loss
time of peak serum concentration [3]: approximately 30 hours
specificity of binding to HA [4]: binds specifically to HA
virus-induced plaque production (PR8 Virus (H1N1)): inhibits virus-induced plaque production
